Test results reported in PubChem BioAssay AID624418 (National Center for Advancing Translational Sciences (NCATS), 2012).
The whole screen tested about 410,000 compounds, of which about 530 (0.13%) were called active. The inconclusive results got no clear call from the source; some entries with a clear call stand among them for comparison. Calls follow the shape of the dose curve; as a rule, active = well fitted inhibition curve with a large enough effect; inconclusive = small, poorly fitted or top-dose-only effect, or another doubt; inactive = no such curve, though single readings can be large or run the other way. Potencies beside an inconclusive call are fits to weak or partial responses and may not hold up.

Assay: qHTS of GLP-1 Receptor Inverse Agonists: Cytotox Screen
Conditions: HEK293 cAMP-luciferase reporter cells, luminescence, 24 h; activity change, negative = inhibition: at 38.3 µM (top of the series) unless noted
Method in brief: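 1536-well qHTS counterscreen of the MLSMR; 200 cells/uL, 12 h pre-incubation, 23 nL cpd, 24 h at 37 deg C 5% CO2, luciferase detection reagent, 12 min RT, luminescence. Inhibition = undesired.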
% is scaled to controls: 0 for no effect and ±100 for the full control effect; potency is read from the fitted curve at half-maximal effect.

Compound	Potency	activity change, negative = inhibition
CCn1c(-c2ccc(N(C)C)cc2)nc2ccccc21	inconclusive: 15.8 µM [inhibitor, single point]	
COC(=O)c1cc(=O)nc2sc(-c3cccs3)nn12		inactive: 5.03%
COC(=O)N/N=C/c1cc(Cl)c(OCc2ccc(F)cc2)c(OC)c1		inactive: 10.4%
O=C(Cn1ncc(Cl)c(Cl)c1=O)N1CCN(S(=O)(=O)c2ccc3ccccc3c2)CC1	inconclusive: 2.82 µM [inhibitor, full curve]	
Cc1ccc(Cl)cc1NC(=S)N1CCC(c2ccccc2)C1 (stereo unspecified)	inconclusive: 11.2 µM [inhibitor, single point]	
Cc1sc(NC(=O)c2ccco2)nc1-c1ccc2c(c1)CC(C)N2C(=O)C1CC1 (stereo unspecified)	inconclusive: 3.55 µM [inhibitor, partial curve, poor fit]	
C[C@H](O)C#Cc1ccc2c(c1)O[C@@H](CN(C)Cc1ccc(-c3ccccc3)cc1)[C@H](C)CN([C@@H](C)CO)S2(=O)=O	inconclusive: 7.08 µM [inhibitor, partial curve, poor fit]	
O=C(/C=C/c1ccccc1)Nc1cccc(C(=O)NCCCc2ccccc2)c1	inconclusive: 28.2 µM [inhibitor, single point]	
ClCCCc1cn(C[C@H]2CC[C@@H]([C@@H]3CC[C@H](Cn4cc(CCCCl)nn4)O3)O2)nn1	inconclusive: 11.2 µM [inhibitor, single point]	
C/C(=N\NC(=O)c1c(Cl)c(C)nn1C)c1cccc(NC(=O)c2cccc(F)c2)c1	inconclusive: 14.1 µM [inhibitor, single point]	
Cc1[nH]c2ccccc2c1C1=CC(=O)C=CC1=O	inconclusive: 11.2 µM [inhibitor, partial curve, poor fit]	
COc1ccc(-c2nc(SCC(=O)Nc3ccc4c(c3)OCCO4)c(-c3ccc(F)cc3)[nH]2)cc1OC	inconclusive: 10 µM [inhibitor, single point]	
Nc1nc(SCC(=O)Nc2ccccc2)nc2nc3c(cc12)CCCC3	inconclusive: 22.4 µM [inhibitor, single point]	
Cc1occc1C(=O)N/N=C/c1ccc(Br)s1		inactive: -0.228%
Cc1cc(C)n(-c2nc(-c3ccc(Cl)c(Cl)c3)cs2)n1		inactive: 9.73%
Cc1ccc(C(=O)O/N=C/c2c(C)nn(C)c2Cl)cc1		inactive: -13.1%
COc1ccc(C(CCN2CCCC(C)C2)c2c(OC)cc(OC)c3c(-c4ccccc4)cc(=O)oc23)cc1 (stereo unspecified)	inconclusive: 31.6 µM [inhibitor, single point]	
CC(C)=CCOc1ccc([C@@H]2COc3c(ccc4c3C=CC(C)(C)O4)C2)c(O)c1	inconclusive: 10 µM [inhibitor, partial curve, poor fit]	
O=C1NC(=O)c2cc(NC(=O)C3CCCCC3)ccc21		inactive: 2.21%
Cc1csc(Nc2nc(N)c(C(=O)Nc3cc(Cl)ccc3F)o2)n1	inconclusive: 12.6 µM [inhibitor, single point]	
COC(=O)[C@]12CCCCC=C1N(Cc1ccccc1)C(=O)[C@H](CC(=O)N1CCC(c3ccccc3)CC1)C2	inconclusive: 12.6 µM [inhibitor, single point]	
Cn1c(=O)c2c(nc(N3CCOCC3)n2CC(=O)C23CC4CC(CC(C4)C2)C3)n(C)c1=O		inactive: -0.804%

Compound	Potency	activity change, negative = inhibition
O=S(=O)(c1ccccc1)N(Cc1nc(-c2ccccc2)no1)C1CCCCC1		inactive: 5.38%
CCC(=O)Nc1ccc(N2CCN(C(=O)c3cccs3)CC2)cc1		inactive: 0.916%
C(=NN1CCCCCC1)c1ccc2ccccc2n1	inconclusive: 12.6 µM [inhibitor, single point]	
O=C(CNC(=S)NC(=O)c1ccc(Br)o1)c1ccccc1	inconclusive: 28.2 µM [inhibitor, single point]	
Cn1c(=O)c2c(nc(N3CCN(Cc4ccccc4)CC3)n2CCCc2ccccc2)n(C)c1=O	inconclusive: 31.6 µM [inhibitor, single point]	
CCc1ccc(S(=O)(=O)c2cn(Cc3ccccc3F)c3cc(OC)c(OC)cc3c2=O)cc1		inactive: -11.7%
CCCCCCCCCCC[N+](C)(C)CC/C=C1/c2ccccc2Sc2ccc(Cl)cc21	inconclusive: 22.4 µM [inhibitor, single point]	
Cn1cccc1/C=N/NC(=O)CSc1nc2ccccc2n1C		inactive: 20.5%
CCOC(=O)c1cnc2c(ccc3ccccc32)c1NCCCN(C)C	inconclusive: 28.2 µM [inhibitor, single point]	
CC/C(=N\NC(=O)c1ccc(-c2ccccc2)cc1)C12CC3CC(CC(C3)C1)C2		inactive: 8.07%
Cc1coc2cc3oc(=O)c(CC(=O)NCc4cccc(Cl)c4)c(C)c3cc12		inactive: 11%
Cc1ccc(Cl)cc1N1CCN(C(=O)CNC(=O)c2ccc(Br)o2)CC1	inconclusive: 3.98 µM [inhibitor, partial curve]	
O=[N+]([O-])c1ccc(O)c(Nc2ncnc3ccc(Br)cc23)c1	inconclusive: 15.8 µM [inhibitor, partial curve, poor fit]	
Cc1cc(N2CCN(C)CC2)nc2ccc(NC(=S)NCCCN3CCc4ccccc4C3)cc12	active: 4.47 µM	
CCn1c2ccccc2c2cc(NS(=O)(=O)c3ccccc3C)ccc21	inconclusive: 8.91 µM [inhibitor, partial curve, poor fit]	
Nc1ccccc1OCCOc1ccccc1N	inconclusive: 7.94 µM [inhibitor, partial curve, poor fit]	
CCCN1C(=O)/C(=C/c2ccc(C)s2)NC1=S	inconclusive: 11.2 µM [inhibitor, single point]	
COc1cc(OC)c2ccc(=O)oc2c1C(CCN1CCCCC1)c1ccc(N(C)C)cc1 (stereo unspecified)	inconclusive: 2.82 µM [inhibitor, full curve]	
COc1ccc(CNCCC(c2ccc3c(c2)OCO3)c2ccccc2OC)cc1 (stereo unspecified)	inconclusive: 28.2 µM [inhibitor, single point]	
COc1ccc(C(=O)Nc2cccc(C(=O)NCc3ccccc3)c2)cc1		inactive: -23.3%
C[C@@H](NC(=O)OC(C)(C)C)c1nnc(S(=O)(=O)Cc2ccccc2)o1	inconclusive: 22.4 µM [inhibitor, partial curve, poor fit]	
CC1CCN(c2nc3ccc(C(=O)NCc4ccccc4Cl)cc3s2)CC1		inactive: 6.84%

Compound	Potency	activity change, negative = inhibition
COc1ccc(N2CC(C(=O)Nc3ccc(S(=O)(=O)Nc4nccs4)cc3)CC2=O)c(OC)c1 (stereo unspecified)	inconclusive: 15.8 µM [inhibitor, partial curve, poor fit]	
O=C(Nc1ccc(Cl)cc1)N1CCCN(c2ccc(C(F)(F)F)cc2[N+](=O)[O-])CC1	inconclusive: 12.6 µM [inhibitor, single point]	
O=C(c1ccc(Br)cc1)C(CN1CCOCC1)c1ccccc1 (stereo unspecified)	inconclusive: 28.2 µM [inhibitor, single point]	
Cc1ccc(S(=O)(=O)Oc2ccccc2/C=N/NC(N)=S)cc1	inconclusive: 0.794 µM [inhibitor, full curve, poor fit]	
Cc1cc2[nH]c(=O)c(=O)[nH]c2cc1S(=O)(=O)Nc1cccc(F)c1	inconclusive: 0.891 µM [inhibitor, full curve, poor fit]	
COc1cc(C(=O)N/N=C/c2ccsc2C)cc(OC)c1OC	inconclusive: 15.8 µM [inhibitor, partial curve, poor fit]	
CCc1ccc2[nH]c(=O)c(CN(CCN3CCCC3)C(=O)NC3CCCCC3)cc2c1	inconclusive: 10 µM [inhibitor, partial curve]	
COc1ccc2cc(C(=O)NCc3ccc4c(c3)CCN4C(=O)c3ccc(F)cc3)[nH]c2c1		inactive: 3.18%
CCn1c(=N)n(CCOc2ccc(Br)cc2)c2ccccc21	inconclusive: 8.91 µM [inhibitor, partial curve, poor fit]	
O=C1[C@@H]2Cc3c([nH]c4ccccc34)C(c3ccccc3)N2C(=O)CN1C1CCN(Cc2ccccc2)CC1 (stereo partly specified)	inconclusive: 10 µM [inhibitor, partial curve, poor fit]	
Cc1c(NS(=O)(=O)c2cc(C(=O)OCC(=O)c3ccccc3F)ccc2Cl)c(=O)n(-c2ccccc2)n1C		inactive: 1.77%
Cc1cccc(OCC(=O)Nc2ccc(-c3nc4ccccc4o3)cc2)c1C		inactive: 0%
Cc1ccc(C)c(-n2c(CNc3ccc(F)cc3)nnc2SCC(N)=O)c1	inconclusive: 1.41 µM [inhibitor, full curve, poor fit]	
Cc1ccc(S(=O)(=O)N2CC3(O)CN(C(=O)OC(C)C)N(C(=O)OC(C)C)CC3(OC(=O)NCC3CCCCC3)C2)cc1 (stereo unspecified)		inactive: 7.93%
Cc1oc(-c2ccccc2Cl)nc1Cn1c(SCc2cccc(F)c2)nc2cccnc21		inactive: -5.8%
Cc1ccc(CCNS(=O)(=O)c2ccc3c(c2)CC(C)N3C(=O)C2CCC2)cc1 (stereo unspecified)		inactive: 1.47%
COc1ccc(-c2nc(CSCC(=O)NCCc3ccccc3)c(C)o2)cc1		inactive: -3.91%
COc1ccc(-c2oc3ncn(CCN4CCOCC4)c(=N)c3c2-c2ccc(OC)cc2)cc1	inconclusive: 12.6 µM [inhibitor, partial curve, poor fit]	
CCCn1nnc(NC(=O)c2ccc(-c3cccc(Cl)c3)o2)n1	inconclusive: 1.58 µM [inhibitor, partial curve, poor fit]	
CCCCCC(=O)NC(=S)Nc1ccc(NC(=O)c2ccco2)cc1	inconclusive: 28.2 µM [inhibitor, single point]	
COc1ccc(C(=O)NC(=S)Nc2ccc(CN3CCOCC3)cc2)cc1Cl	inconclusive: 28.2 µM [inhibitor, single point]	
CCCCN(CC)C(=O)CSc1c2c(nc3ccc(Cl)cc13)CCCC2	inconclusive: 28.2 µM [inhibitor, single point]	
